Results on nine substances are retold here after article PMC7160150.

By UniProt entry, the sequences of proteins in these tests, tags left out.
UniProt Q39204: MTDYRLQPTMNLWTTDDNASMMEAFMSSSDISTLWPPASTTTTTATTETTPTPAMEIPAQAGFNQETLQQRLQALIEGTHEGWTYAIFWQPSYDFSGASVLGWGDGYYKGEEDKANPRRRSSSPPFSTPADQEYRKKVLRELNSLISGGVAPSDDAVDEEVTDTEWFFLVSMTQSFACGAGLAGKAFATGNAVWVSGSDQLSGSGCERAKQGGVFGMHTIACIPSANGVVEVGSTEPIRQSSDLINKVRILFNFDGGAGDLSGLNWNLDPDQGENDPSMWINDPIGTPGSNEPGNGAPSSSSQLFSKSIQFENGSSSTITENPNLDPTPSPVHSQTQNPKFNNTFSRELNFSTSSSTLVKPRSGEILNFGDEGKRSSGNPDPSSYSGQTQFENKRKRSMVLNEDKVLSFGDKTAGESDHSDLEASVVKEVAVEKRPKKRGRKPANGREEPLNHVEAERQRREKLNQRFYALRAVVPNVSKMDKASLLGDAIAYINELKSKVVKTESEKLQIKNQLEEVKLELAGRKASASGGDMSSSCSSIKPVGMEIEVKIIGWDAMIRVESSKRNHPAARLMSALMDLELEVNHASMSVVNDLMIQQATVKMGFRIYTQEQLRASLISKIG
UniProt O49687: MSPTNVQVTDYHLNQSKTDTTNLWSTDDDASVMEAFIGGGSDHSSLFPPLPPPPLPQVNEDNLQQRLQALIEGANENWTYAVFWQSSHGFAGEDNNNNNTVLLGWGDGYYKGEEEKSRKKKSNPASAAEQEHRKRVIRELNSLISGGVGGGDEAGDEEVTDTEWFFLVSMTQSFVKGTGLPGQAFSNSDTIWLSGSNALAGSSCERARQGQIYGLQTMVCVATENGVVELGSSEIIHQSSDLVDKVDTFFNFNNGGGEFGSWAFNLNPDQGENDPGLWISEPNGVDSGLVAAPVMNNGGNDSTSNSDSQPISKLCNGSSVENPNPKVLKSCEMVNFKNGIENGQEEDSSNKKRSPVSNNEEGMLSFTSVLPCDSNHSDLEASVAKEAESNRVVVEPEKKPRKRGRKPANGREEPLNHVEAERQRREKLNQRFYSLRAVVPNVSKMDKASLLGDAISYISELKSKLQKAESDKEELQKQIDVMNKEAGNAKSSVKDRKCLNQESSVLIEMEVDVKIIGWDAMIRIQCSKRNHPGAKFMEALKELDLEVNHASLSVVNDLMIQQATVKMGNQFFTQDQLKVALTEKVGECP
UniProt Q7XA73: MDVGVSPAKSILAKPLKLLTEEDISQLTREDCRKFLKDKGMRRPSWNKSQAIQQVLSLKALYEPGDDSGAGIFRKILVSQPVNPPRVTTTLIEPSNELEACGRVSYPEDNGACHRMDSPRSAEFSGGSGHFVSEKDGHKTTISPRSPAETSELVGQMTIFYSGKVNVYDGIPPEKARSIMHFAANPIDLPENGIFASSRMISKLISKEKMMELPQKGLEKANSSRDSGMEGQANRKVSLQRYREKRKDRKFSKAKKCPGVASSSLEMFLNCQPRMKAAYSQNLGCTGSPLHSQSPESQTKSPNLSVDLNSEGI
UniProt Q8GY55: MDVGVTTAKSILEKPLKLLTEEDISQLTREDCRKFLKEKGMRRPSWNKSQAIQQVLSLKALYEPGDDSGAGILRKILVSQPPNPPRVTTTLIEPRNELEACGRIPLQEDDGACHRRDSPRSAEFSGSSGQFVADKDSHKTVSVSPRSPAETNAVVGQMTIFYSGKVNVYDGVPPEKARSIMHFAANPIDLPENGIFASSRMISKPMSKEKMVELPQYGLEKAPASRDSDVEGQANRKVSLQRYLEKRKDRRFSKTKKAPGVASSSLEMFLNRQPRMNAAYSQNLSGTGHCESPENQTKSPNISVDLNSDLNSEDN

No constants are given. Whether binding was seen depends on the method and setting. In cells and extracts the contact can be indirect. Some results given as binding are weak or reduced against the parent protein; the word gives no strength.

For test [1], the target named is T1, ENHANCER OF GLABRA 3 (EGL3) (UniProt Q9CAD0).
T1 sequence: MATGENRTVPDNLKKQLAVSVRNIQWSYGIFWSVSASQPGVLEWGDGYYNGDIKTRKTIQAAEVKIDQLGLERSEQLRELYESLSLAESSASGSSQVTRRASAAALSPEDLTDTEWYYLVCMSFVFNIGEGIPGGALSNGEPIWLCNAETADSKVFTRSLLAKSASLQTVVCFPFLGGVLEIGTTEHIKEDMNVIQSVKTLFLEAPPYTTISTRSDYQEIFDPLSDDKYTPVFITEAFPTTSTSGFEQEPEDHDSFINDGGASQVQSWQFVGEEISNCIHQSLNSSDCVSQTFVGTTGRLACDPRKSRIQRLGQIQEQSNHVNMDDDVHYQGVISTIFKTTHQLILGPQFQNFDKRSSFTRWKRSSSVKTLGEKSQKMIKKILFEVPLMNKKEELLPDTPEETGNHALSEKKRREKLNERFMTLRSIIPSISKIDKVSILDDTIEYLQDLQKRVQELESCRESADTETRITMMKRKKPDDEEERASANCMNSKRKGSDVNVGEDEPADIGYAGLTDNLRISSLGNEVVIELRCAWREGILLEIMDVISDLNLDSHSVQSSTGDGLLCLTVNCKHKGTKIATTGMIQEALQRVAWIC
Put plainly: split reporter; split luciferase complementation; nLUC and cLUC fusions coexpressed in N. benthamiana leaves; luciferase activity detected 2 days after infiltration.

Another test concerns the target T2, ETHYLENE-… 3 (EIN3) (UniProt O24606).
T2 sequence: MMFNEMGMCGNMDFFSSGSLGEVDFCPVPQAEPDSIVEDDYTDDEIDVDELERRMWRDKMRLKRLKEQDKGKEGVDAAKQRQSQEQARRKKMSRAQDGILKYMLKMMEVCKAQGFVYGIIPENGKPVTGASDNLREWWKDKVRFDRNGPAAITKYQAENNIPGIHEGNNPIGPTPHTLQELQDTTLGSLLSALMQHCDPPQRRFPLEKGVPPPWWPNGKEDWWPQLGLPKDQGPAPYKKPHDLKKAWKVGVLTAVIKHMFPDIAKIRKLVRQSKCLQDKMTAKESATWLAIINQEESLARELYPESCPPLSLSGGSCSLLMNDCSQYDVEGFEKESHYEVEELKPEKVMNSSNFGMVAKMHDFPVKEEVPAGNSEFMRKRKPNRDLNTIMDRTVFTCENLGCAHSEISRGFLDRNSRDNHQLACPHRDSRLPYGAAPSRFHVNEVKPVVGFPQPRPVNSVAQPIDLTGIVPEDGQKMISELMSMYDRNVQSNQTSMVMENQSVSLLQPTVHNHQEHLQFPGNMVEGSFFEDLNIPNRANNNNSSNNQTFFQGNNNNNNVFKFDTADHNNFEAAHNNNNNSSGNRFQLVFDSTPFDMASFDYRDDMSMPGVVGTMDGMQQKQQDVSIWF
Described as above.

Test [2] has as its target T3, ETHYLENE-…3-LIKE 1 (EIL1) (UniProt Q9SLH0).
T3 sequence: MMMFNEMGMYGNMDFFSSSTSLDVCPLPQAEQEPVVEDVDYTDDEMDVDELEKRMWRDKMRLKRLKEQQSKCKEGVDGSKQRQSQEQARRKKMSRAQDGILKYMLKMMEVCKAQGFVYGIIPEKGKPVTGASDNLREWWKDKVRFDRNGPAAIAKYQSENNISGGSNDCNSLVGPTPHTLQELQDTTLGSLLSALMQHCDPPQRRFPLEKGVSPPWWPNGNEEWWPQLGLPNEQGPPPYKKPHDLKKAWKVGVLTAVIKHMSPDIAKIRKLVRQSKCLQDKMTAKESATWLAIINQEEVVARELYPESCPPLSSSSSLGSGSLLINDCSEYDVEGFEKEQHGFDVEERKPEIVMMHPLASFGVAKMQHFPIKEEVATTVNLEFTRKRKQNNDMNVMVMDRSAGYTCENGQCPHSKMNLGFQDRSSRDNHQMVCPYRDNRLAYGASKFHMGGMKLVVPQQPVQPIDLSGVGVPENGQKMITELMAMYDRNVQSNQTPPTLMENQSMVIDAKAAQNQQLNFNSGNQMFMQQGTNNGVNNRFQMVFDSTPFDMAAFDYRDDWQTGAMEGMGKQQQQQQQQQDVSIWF
The test is described as above.

The target in a further test is T4, GLABRA 1 (GL1) (UniProt P27900).
T4 sequence: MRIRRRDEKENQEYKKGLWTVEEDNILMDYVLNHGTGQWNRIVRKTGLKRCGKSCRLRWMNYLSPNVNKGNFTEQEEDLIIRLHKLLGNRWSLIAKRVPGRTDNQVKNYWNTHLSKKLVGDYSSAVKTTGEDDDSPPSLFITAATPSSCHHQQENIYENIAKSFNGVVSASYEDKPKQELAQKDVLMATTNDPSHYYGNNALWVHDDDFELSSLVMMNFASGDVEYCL
The test is described as above.

A further test has as its target T5, GLABROUS 3 (GL3) (UniProt Q9FN69).
T5 sequence: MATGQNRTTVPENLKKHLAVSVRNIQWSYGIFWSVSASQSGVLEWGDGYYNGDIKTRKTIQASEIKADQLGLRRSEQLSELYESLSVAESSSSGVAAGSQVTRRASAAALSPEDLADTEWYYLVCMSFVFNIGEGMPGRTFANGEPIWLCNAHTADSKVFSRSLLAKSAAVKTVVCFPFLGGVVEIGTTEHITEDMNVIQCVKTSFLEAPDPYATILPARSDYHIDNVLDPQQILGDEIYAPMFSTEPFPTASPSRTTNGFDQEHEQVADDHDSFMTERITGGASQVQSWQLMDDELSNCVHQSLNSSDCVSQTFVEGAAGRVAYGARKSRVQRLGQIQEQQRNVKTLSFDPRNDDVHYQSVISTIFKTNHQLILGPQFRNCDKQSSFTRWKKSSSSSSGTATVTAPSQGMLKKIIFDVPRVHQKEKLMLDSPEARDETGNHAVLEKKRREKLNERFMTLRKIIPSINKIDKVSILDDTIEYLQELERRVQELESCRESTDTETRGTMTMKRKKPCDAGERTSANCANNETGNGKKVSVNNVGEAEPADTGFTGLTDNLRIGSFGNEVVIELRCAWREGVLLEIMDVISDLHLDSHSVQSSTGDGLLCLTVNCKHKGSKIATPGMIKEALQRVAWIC
The description is as above.

Another test has as its target T6, MYB21 (UniProt Q9LK95).
T6 sequence: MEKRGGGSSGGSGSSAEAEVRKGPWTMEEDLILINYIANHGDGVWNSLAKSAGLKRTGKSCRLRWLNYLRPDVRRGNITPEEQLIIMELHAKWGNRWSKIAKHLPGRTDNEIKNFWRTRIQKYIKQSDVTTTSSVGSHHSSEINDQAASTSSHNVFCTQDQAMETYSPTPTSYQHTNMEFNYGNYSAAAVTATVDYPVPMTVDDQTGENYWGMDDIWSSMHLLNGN
The test is described as above.

A further test concerns the target T7, MYB24 (UniProt Q9SPG9).
T7 sequence: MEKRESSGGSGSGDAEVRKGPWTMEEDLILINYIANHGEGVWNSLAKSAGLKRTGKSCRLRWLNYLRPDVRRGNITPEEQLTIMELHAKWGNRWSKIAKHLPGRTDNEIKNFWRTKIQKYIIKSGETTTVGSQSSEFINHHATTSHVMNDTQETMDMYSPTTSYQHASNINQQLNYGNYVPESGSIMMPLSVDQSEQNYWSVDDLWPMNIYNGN
Described as above.

In test [3] the target is MYC2-nLUC (Arabidopsis thaliana (Col-0)) (UniProt Q39204). The description is as above.
The target of test [4] is MYC4-nLUC (Arabidopsis thaliana (Col-0)) (UniProt O49687). The test is described as above.
For a further test, the target named is T8, … TESTA 8 (TT8) (UniProt Q9FT81).
T8 sequence: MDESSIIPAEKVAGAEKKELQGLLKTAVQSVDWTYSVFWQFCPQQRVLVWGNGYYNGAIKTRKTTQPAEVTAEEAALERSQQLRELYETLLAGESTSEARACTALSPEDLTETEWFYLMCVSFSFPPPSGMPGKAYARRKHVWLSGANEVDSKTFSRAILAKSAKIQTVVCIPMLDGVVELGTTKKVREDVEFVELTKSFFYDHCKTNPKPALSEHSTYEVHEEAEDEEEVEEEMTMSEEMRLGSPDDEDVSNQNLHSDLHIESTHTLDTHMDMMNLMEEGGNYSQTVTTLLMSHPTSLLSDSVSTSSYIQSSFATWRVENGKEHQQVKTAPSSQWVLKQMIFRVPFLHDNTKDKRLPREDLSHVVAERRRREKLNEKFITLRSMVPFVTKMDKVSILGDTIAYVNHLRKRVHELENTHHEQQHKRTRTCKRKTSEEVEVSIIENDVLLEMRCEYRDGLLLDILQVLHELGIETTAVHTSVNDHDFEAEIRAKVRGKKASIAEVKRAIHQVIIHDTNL
The description is as above.

In test [5] the target is MYC4-CFP (Arabidopsis thaliana (Col-0)) (UniProt O49687). Put plainly: FRET or BRET; FRET-FLIM; CFP and YFP fusions coinfiltrated into N. benthamiana leaves; CFP fluorescence lifetime 2 days after coinfiltration. A general note: Bioluminescence resonance energy transfer reports proximity on the nanometre scale.
The target in test [6] is GFP-MYC2 (Arabidopsis thaliana (Col-0)) (UniProt Q39204). The experiment in a line: co-IP; total protein extracts of transgenic Arabidopsis plants expressing Myc- and GFP-tagged proteins; GFP-Trap agarose beads, 4 °C 1 h; 50 mM Tris-HCl pH 7.5, 150 mM NaCl, Triton X-100; blot with anti-GFP and anti-Myc.
For test [7], the target named is GFP-MYC4 (Arabidopsis thaliana (Col-0)) (UniProt O49687). The description is as above.
Test [8] has as its target cYFP-MYC4 (Arabidopsis thaliana (Col-0)) (UniProt O49687). Put plainly: split reporter; bimolecular fluorescence complementation; cYFP and nYFP fusions coinfiltrated into N. benthamiana leaves; YFP fluorescence 2 days after infiltration.
Test [9] addresses MBP-PPD1 (Arabidopsis thaliana (Col-0)) (UniProt Q7XA73). Put plainly: pull-down; GST-MYC3/4 incubated with MBP-PPD1/2 or MBP (E. coli proteins obtained by sonication) at 4 °C for 1 h; pulled down with anti-MBP agarose beads; 50 mM HEPES pH 7.5, 150 mM NaCl, Triton X-100; blot with anti-GST and anti-MBP.
For test [10], the target named is MBP-PPD2 (Arabidopsis thaliana (Col-0)) (UniProt Q8GY55). The test is described as above.

Turning to cLUC-PPD2 (from UniProt Q8GY55 1-315), the binding entry (in test [1]; in the test with ETHYLENE-… 3 (EIN3); in [2]; with GLABRA 1 (GL1); with GLABROUS 3 (GL3); with MYB21) was “no binding” in each case. For the same substance, the binding entry with MYB24 is “no binding”; in test [3], “no binding”; in test [4], “binds”; with … TESTA 8 (TT8), “no binding”.
For PPD1-YFP (from UniProt Q7XA73 1-313), the binding entry in test [5] is “binds”.
Consider Myc-PPD2 (from UniProt Q8GY55 1-315), for which the values for the binding result in [6] and in [7] were “no binding” and “binds”, respectively.
With Myc-PPD1 (from UniProt Q7XA73 1-313), the binding entry in [6] is on record as “no binding”; in [7], “binds”.
For nYFP-PPD2 (from UniProt Q8GY55 1-315), the binding entry in test [8] is “binds”.
Turning to cLUC-PPD1 (from UniProt Q7XA73 1-313), the binding result (in test [1]; with ETHYLENE-… 3 (EIN3); in test [2]; with GLABRA 1 (GL1); in the test with GLABROUS 3 (GL3); in the test with MYB21) was “no binding” in each case. In addition, the binding result in the test with MYB24 is “no binding”; in test [3] it was “no binding”; in [4], “binds”; with … TESTA 8 (TT8) it was “no binding”.
Turning to PPD2-YFP (from UniProt Q8GY55 1-315), the binding entry in [5] is “binds”.
For GST-MYC4 (from UniProt O49687 1-589), the binding result in test [9] and in test [10] was “binds” throughout.
With nYFP-PPD1 (from UniProt Q7XA73 1-313), the binding entry in test [8] was “binds”.
